Screen size: about 310,000 compounds; about 14,000 (4.5%) showed an effect of 50% or more. Effects have a minus sign here. The list shows a part of the results.

Experimental findings from PMC4336329 (PLoS ONE, 2015) are described below.
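Note: peak tail current of the secondary pulse compared with the same well before compound.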

The target of this experiment is human ether-à-go-go-related gene (hERG) potassium channel (human, UniProt Q12809). The experiment in a line: primary screen, population patch clamp on CHO cells stably expressing hERG.
Sequence of human ether-à-go-go-related gene (hERG) potassium channel (Q12809 whole entry, looked up): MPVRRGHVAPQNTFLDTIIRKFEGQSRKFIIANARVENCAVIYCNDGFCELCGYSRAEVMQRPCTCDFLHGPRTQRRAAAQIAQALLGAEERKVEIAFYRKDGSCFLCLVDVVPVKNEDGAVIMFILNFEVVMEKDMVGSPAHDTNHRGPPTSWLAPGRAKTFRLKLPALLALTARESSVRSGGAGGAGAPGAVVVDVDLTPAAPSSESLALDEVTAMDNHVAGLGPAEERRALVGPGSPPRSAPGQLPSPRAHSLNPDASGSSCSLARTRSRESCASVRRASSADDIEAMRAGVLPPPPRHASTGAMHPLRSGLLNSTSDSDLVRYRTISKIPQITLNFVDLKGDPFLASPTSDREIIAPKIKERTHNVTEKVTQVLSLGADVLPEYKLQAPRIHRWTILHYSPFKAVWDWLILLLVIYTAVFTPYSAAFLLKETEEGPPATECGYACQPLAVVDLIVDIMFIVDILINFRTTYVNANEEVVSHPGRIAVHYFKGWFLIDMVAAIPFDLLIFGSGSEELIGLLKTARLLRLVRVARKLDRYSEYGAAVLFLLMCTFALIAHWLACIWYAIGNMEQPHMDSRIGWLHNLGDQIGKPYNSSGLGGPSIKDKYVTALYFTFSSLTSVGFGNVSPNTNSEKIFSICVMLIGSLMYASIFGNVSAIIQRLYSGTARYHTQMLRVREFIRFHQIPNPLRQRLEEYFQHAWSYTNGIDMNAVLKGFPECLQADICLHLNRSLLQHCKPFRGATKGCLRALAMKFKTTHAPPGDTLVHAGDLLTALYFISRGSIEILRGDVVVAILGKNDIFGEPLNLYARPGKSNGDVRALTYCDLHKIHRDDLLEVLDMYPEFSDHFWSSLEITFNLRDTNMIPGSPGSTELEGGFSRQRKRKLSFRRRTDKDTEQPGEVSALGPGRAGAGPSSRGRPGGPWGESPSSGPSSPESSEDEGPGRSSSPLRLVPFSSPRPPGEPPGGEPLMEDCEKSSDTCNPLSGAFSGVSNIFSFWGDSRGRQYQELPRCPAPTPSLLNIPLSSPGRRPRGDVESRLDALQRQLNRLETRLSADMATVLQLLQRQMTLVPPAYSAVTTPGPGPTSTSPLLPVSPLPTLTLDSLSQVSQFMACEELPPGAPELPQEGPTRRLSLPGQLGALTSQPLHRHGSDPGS
Turning to `O=C(O)C(=O)O.OCCN1CCN(CC(O)COC(c2ccc(F)cc2)c2ccc(F)cc2)CC1` (stereo not drawn), the “hERG current change (%, negative = inhibition) at 10uM” value is on record as -61.9%.

For the compound `Cc1ccc(/S(C)=N/S(=O)(=O)c2ccc(C)cc2)cc1` (stereo not drawn), the “hERG current change (%, negative = inhibition) at 10uM” value stood at 6.76%. Consider `O=C(NCc1ccco1)c1ccccc1`, for which the “hERG current change (%, negative = inhibition) at 10uM” value was determined as 8.8%. On to `CCCCCCc1cc2cc(-c3nnc(-c4ccccc4O)o3)c(=O)oc2cc1O`, for which the “hERG current change (%, negative = inhibition) at 10uM” value is -4.25%. For the compound `c1ccc2[nH]c(CN3CCOCC3)nc2c1`, the “hERG current change (%, negative = inhibition) at 10uM” value came out at 12%. As to `Brc1ccc(OCc2nc(-c3ccccn3)n[nH]2)cc1`, the “hERG current change (%, negative = inhibition) at 10uM” value was -3.04%. Turning to `NC(N)=NS(=O)(=O)c1ccc(NC(=S)NC(=O)c2ccc3c(c2)OCO3)cc1`, the “hERG current change (%, negative = inhibition) at 10uM” value was determined as 10.3%. Consider `Nc1nc(N)c2ncc(C(=O)CCc3ccccc3)nc2n1`, for which the “hERG current change (%, negative = inhibition) at 10uM” value was -35.2%. `Cl.O=C(NCCCn1ccnc1)c1cc(Cl)cc(Cl)c1`: the “hERG current change (%, negative = inhibition) at 10uM” value is -35.4%. As to `CN(Cc1ccc(F)cc1)C(=O)c1cccc(OC2CCN(C3CCCC3)CC2)c1`, the “hERG current change (%, negative = inhibition) at 10uM” value is -61%. Under `O=C(Nc1ccccc1)c1ccncc1` stands 1.31%; under `O=C(NCCCN1CCOCC1)C(=O)NCc1ccco1`, -1.68%; under `Cn1c(CNC(=O)c2ccccc2)nnc1SCC(=O)Nc1nccs1`, 23.5%. For `CCC1=C(OC(=O)N(CC)CC)N2C(=O)OC(=NCC3CC3)[C@]2(C)[C@H]2C1=CC[C@H]1C(=O)N(C)C(=O)[C@H]12` the value was 3.39%; for `CCc1nnc(NC(=O)c2cc(C)nc3ccccc23)s1`, 8.79%; for `Cc1nc(SCC(=O)c2c[nH]c3ccccc23)n[nH]1`, 6.7%.

On to `CC(CN1CCCC1)OC(=O)c1ccc(Cl)cc1.Cl` (stereo not drawn), for which the “hERG current change (%, negative = inhibition) at 10uM” value is given as -12.4%. Regarding `COc1ccc(CCNC(=O)C2CCN(C(=O)c3ccccc3)CC2)cc1`, the “hERG current change (%, negative = inhibition) at 10uM” value is recorded as 2.13%. As to `Clc1ccccc1/C=C/c1nc(-c2ccccn2)no1`, the “hERG current change (%, negative = inhibition) at 10uM” value is on record as 7.15%. Under `Cc1ccc(NC(=O)CN(C)S(=O)(=O)c2ccc3c(c2)n(C)c(=O)c(=O)n3C)c(C)c1` stands -4.71%; under `Cn1ncc([N+](=O)[O-])c1C(=O)Nc1ccccc1Cl`, 15.4%; under `CC(=O)Oc1ccc(/C=C(\NC(=O)c2ccco2)C(=O)NCc2ccccc2)cc1`, -68.3%. Consider `CC(C)c1ccc(NC(=O)C2=NNC(=O)CC2)cc1`, for which the “hERG current change (%, negative = inhibition) at 10uM” value was -19.3%. For `CCCCn1c(O)c(C(C)=NC(C)c2ccccc2)c(=O)[nH]c1=O` (stereo not drawn), the “hERG current change (%, negative = inhibition) at 10uM” value was -22.3%. For `COc1cccc(CNC(=O)c2ccc(C3SCCS3)cc2)c1`, the “hERG current change (%, negative = inhibition) at 10uM” value is -18.9%.

Consider `O=C(NCCc1ccccc1)C1CCN(c2ncccn2)CC1`, for which the “hERG current change (%, negative = inhibition) at 10uM” value is on record as 1.28%. Turning to `CC(=O)c1cccc(NS(=O)(=O)c2ccc(N/C=C\C(=O)c3ccc(F)cc3)cc2)c1`, the “hERG current change (%, negative = inhibition) at 10uM” value came out at 11.8%. On to `COc1ccccc1NC(=O)CCN1C(=O)C2CC=CCC2C1=O` (stereo not drawn), for which the “hERG current change (%, negative = inhibition) at 10uM” value is listed as 8.33%. For `COC(C(=O)Nc1ccc(S(=O)(=O)Nc2c(C)cccc2C)cc1)c1ccccc1` (stereo not drawn), the “hERG current change (%, negative = inhibition) at 10uM” value is recorded as -74.6%.

In the case of `COCCCn1c(SCc2cccc(OC)c2)nc2cc(OC)c(OC)cc2c1=N`, the “hERG current change (%, negative = inhibition) at 10uM” value is listed as -12.4%. As to `CC(=O)c1ccc(NC(=O)CN2CCCCCC2)cc1`, the “hERG current change (%, negative = inhibition) at 10uM” value is recorded as 13.4%.

`Cc1cccc(N2N=C(C(=O)Nc3ccc(Cl)c(S(=O)(=O)N4CCOCC4)c3)CCC2=O)c1`: the “hERG current change (%, negative = inhibition) at 10uM” value was -52.4%.

Consider `O=[N+]([O-])c1c(N2CCN(CCO)CC2)nc2ccccn12`, for which the “hERG current change (%, negative = inhibition) at 10uM” value came to 16.5%. For `CC(C)C[C@H](NC(=O)Nc1ccc2c(c1)OCCO2)C(=O)O` the value was 15.9%. For the compound `Cc1c(C(=O)NCc2cccnc2)oc2ccc(S(=O)(=O)N3CCCCCC3)cc12`, the “hERG current change (%, negative = inhibition) at 10uM” value is given as -38.3%. Under `CCOC(=O)C1CCN(C(=O)CCS(=O)(=O)c2ccc3c(c2)CC(C)N3C(=O)CC)CC1` (stereo not drawn) stands 12%; under `Clc1ccc2ccc3cccnc3c2n1`, 13.8%; under `COC(=O)CN1C(=S)N(c2ccc(Cl)cc2)C(=O)C1CC(=O)Nc1ccccc1` (stereo not drawn), -7.08%. Turning to `CN(C(=O)COC(=O)CCCN1C(=O)c2cccc3cccc(c23)C1=O)C1CCS(=O)(=O)C1` (stereo not drawn), the “hERG current change (%, negative = inhibition) at 10uM” value is reported as -14.3%. For the compound `COc1ccc(S(=O)(=O)N2CCCC(C(=O)NCc3ccco3)C2)cc1Cl` (stereo not drawn), the “hERG current change (%, negative = inhibition) at 10uM” value is recorded as -23.5%. For `C=CCn1c(-c2ccccc2OCC)n[nH]c1=S` the value was -9.73%. For `COc1cc(OC)cc(C(=O)NCc2ccc3c(c2)cc(C)n3C)c1` the value was 4.94%; for `O=C(O)c1cccc(-n2sc3ccccc3c2=O)c1`, 7.18%.

For the compound `COc1ccc(CCNC(=O)CSc2nc(O)c(CCC(C)C)c(=O)[nH]2)cc1OC`, the “hERG current change (%, negative = inhibition) at 10uM” value is 0.815%.

With `COCc1c(C(=O)OCc2nc3ccsc3c(=O)[nH]2)oc2ccccc12`, the “hERG current change (%, negative = inhibition) at 10uM” value was -13.8%.
